{"source": "PubChem BioAssay AID485297", "about": "(National Center for Advancing Translational Sciences (NCATS), 2010)", "note": "Hit rate of the full screen: of about 320,000 compounds, about 9,100 (2.8%) were called active. The inconclusive results got no clear call from the source; some entries with a clear call stand among them for comparison. The call rests on the fitted dose curve; in most records, active means well fitted activation curve with a large enough effect; inconclusive means small, poorly fitted or top-dose-only effect; inactive means no such curve, though single readings can be large or run the other way. No potency is given beside an inconclusive call; the fits are too rough. Potency means the concentration at half of the fitted maximal effect; tags describe the fitted curve by direction and shape.", "data": [{"test": "qHTS Assay for Rab9 Promoter Activators; further: nearly all actives have a fitted effect of over 60% in size; on activation, negative = inhibition: % of control where 0% means no effect", "details": "Huh7 Rab9 promoter-luciferase reporter, luminescence, 24 h; series mostly up to 9.22 µM; activation, negative = inhibition: at the top concentration", "procedure,_shortened": "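Huh7 reporter line, Rab9 promoter upstream of luciferase. Compound exposure 24 h at 37 °C in reduced-serum medium with 10% FBS. Read-out: luminescence.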", "values": [{"smiles": "CCCCc1c(C)[nH]c2nc3ccccc3n2c1=O", "Potency": "inconclusive [activator, single point]"}, {"smiles": "CC(OC(=O)CNC(=O)c1ccccc1F)C(=O)Nc1nc(-c2ccccc2)cs1", "note": "(stereo not given)", "Potency": "inconclusive [activator, partial curve]"}, {"smiles": "O=C(NC12CC3CC(CC(C3)C1)C2)N1CCN(C(=O)c2ccco2)CC1", "activation, negative = inhibition": "inactive: 0.382%"}, {"smiles": "Cc1cccnc1Sc1c([N+](=O)[O-])ncn1C", "activation, negative = inhibition": "inactive: -1.46%"}, {"smiles": "C#CCn1c(=NC(=O)c2ccc(Br)s2)sc2cccc(OC)c21", "Potency": "inconclusive [activator, single point]"}, {"smiles": "CC(C)(C)NC(=O)NC(=O)COc1ccccc1C#N", "Potency": "active: 1.58 µM"}, {"smiles": "O=C(CSc1nnc(-c2ccccc2F)o1)N1CCCC1", "Potency": "inconclusive [activator, single point]"}, {"smiles": "Clc1cccc(N/N=C/c2ccncc2)c1", "Potency": "inconclusive [activator, single point]"}, {"smiles": "Cc1cccc(NC(=O)NCc2ccc3[nH]c(C)cc3c2)c1", "Potency": "inconclusive [activator, single point]"}, {"smiles": "O=C(O)Cn1c(O)c(C=Nc2ccccc2)sc1=S", "Potency": "inactive"}, {"smiles": "CC1CCc2cc(F)ccc2N1C(=O)C12CCC(C)(C(=O)O1)C2(C)C", "note": "(stereo not given)", "activation, negative = inhibition": "inactive: -0.599%"}, {"smiles": "CCOC(=O)CSc1ccc(-c2nc3cc(C)c(C)cc3[nH]2)cn1", "Potency": "inconclusive [activator, partial curve]"}, {"smiles": "Cn1c(SCc2ccc(C#N)cc2Cl)nc2ccccc21", "Potency": "active: 3.55 µM"}, {"smiles": "Cc1cccc2c1cnn2C(=O)Nc1ccccc1Cl", "Potency": "inconclusive [activator, partial curve]"}, {"smiles": "C=CCc1ccc(OCc2ccc(C(=O)OC)o2)c(OC)c1", "Potency": "active: 0.501 µM"}, {"smiles": "CCN(CC)c1ccc(C=C(c2nnnn2-c2ccc(C)cc2)c2nnnn2-c2ccc(C)cc2)cc1", "activation, negative = inhibition": "inactive: -0.984%"}, {"smiles": "Clc1ccccc1/C=C/c1nc(-c2ccccn2)no1", "Potency": "inconclusive [activator, partial curve]"}, {"smiles": "N#CCOC(=O)c1c2c(nc3ccccc13)CCC2", "activation, negative = inhibition": "inactive: -3.52%"}, {"smiles": "Cc1ccc2nc(-c3ccncc3)[nH]c2c1", "Potency": "inconclusive [activator, single point]"}, {"smiles": "NS(=O)(=O)c1ccc(NC(=O)Nc2ccc3c(c2)OCO3)cc1", "Potency": "inconclusive [activator, partial curve]"}, {"smiles": "COC(=O)c1ccc(COc2ccc(C)c(C)c2)o1", "Potency": "active: 1.58 µM"}, {"smiles": "Cn1c(CO)cnc1SCc1ccc(Cl)cc1", "Potency": "inconclusive [activator, partial curve]"}, {"smiles": "CC(=O)N(C)c1ccc(NC(=O)Nc2ccc(C)cc2)cc1", "Potency": "inconclusive [activator, partial curve]"}, {"smiles": "Cc1cc(C)c(NN=c2c(=O)c3ccccc3c2=O)c(C)c1", "Potency": "active: 1.78 µM"}, {"smiles": "CCc1ccc(NC(=O)c2sc3nc4n(c(=O)c3c2C)CCC4)cc1", "Potency": "inconclusive [activator, single point]"}, {"smiles": "COc1ccc(N2CCN(c3ncccn3)CC2)cc1", "Potency": "inconclusive [activator, partial curve]"}, {"smiles": "O=C(O)c1cccc(-c2ccc(/C=N/Nc3nn[nH]n3)o2)c1", "activation, negative = inhibition": "inactive: 22.9%"}, {"smiles": "CCCCCn1c(CN2CCN(Cc3ccccc3)CC2)nc2c1c(=O)[nH]c(=O)n2C", "Potency": "inconclusive [activator, single point]"}, {"smiles": "O=C(Nc1ccccc1)c1cc2n(n1)C(C(F)(F)F)CC(C1CC1)N2", "note": "(stereo not given)", "Potency": "active: 1.78 µM"}, {"smiles": "CC(=O)Nc1ccc(NC(=O)/C(Cl)=C/c2ccccc2)cc1", "Potency": "inconclusive [activator, single point]"}, {"smiles": "c1ccc(-n2cnc3ccccc32)cc1", "activation, negative = inhibition": "inactive: 19.6%"}, {"smiles": "CC(C)C(=O)Nc1cccc(NC(=O)c2cc3ccccc3o2)c1", "Potency": "inconclusive [activator, partial curve]"}, {"smiles": "O=C(CNC(=O)c1ccco1)Nc1ccc(Cl)cc1", "Potency": "inconclusive [activator, single point]"}, {"smiles": "CCOc1ccc(NC(=O)NC2CCCCCCC2)cc1", "Potency": "active: 3.55 µM"}, {"smiles": "CCC(Sc1ncnc2c1nnn2-c1ccc(F)cc1)C(=O)OC", "note": "(stereo not given)", "Potency": "inconclusive [activator, partial curve]"}, {"smiles": "O=C(Nc1cccc(Cl)c1)N1CCc2ccccc2C1", "Potency": "active: 3.16 µM"}, {"smiles": "CN(C)c1ccc(/C=N/NC(=O)CNC(=O)/C=C/c2ccccc2)cc1", "Potency": "inconclusive [activator, partial curve]"}, {"smiles": "CCNC(=O)C1CCCN1C(=O)C(CCCN=C(N)N)NC(=O)C(CC(C)C)NC(=O)C(Cc1cn(Cc2ccccc2)cn1)NC(=O)C(Cc1ccc(O)cc1)NC(=O)C(CO)NC(=O)C(Cc1c[nH]c2ccccc12)NC(=O)C(Cc1cnc[nH]1)NC(=O)C1CCC(=O)N1", "note": "(stereo not given)", "activation, negative = inhibition": "inactive: 0.0336%"}, {"smiles": "CCCOc1ccc(C(=O)Nc2ccc3c(c2)OCO3)cc1", "Potency": "active: 2.82 µM"}, {"smiles": "CC(C)c1cc(C(=O)NNC(=S)NC2CCCCC2)cs1", "Potency": "inconclusive [activator, partial curve]"}, {"smiles": "N#Cc1cc(C#N)c(N2CCN(c3ccccn3)CC2)nc1N", "Potency": "inconclusive [activator, partial curve]"}, {"smiles": "CN(C)N1C(=O)CC(C)(c2ccc([N+](=O)[O-])cc2)C1=O", "note": "(stereo not given)", "activation, negative = inhibition": "inactive: 2.17%"}, {"smiles": "COc1ccc(/C=N/Nc2nc(Nc3ccccc3)nc(N3CCCCC3)n2)cc1OC", "Potency": "inconclusive [activator, partial curve]"}, {"smiles": "CN(C(=O)COC(=O)CCCc1c[nH]c2ccccc12)c1c(N)n(Cc2ccccc2)c(=O)[nH]c1=O", "activation, negative = inhibition": "inactive: -3.62%"}, {"smiles": "Cc1ccc(C(=O)N[C@H](C(=O)Nc2sccc2C(N)=O)C(C)C)cc1", "activation, negative = inhibition": "inactive: -0.655%"}, {"smiles": "Cc1c(NS(C)(=O)=O)cccc1-c1nc2cccnc2s1", "Potency": "inconclusive [activator, single point]"}, {"smiles": "Fc1ccc(C2=CC(c3ccco3)n3ncnc3N2)cc1", "note": "(stereo not given)", "activation, negative = inhibition": "inactive: 1.86%"}, {"smiles": "O=C(Nc1ccccn1)C1CCN(S(=O)(=O)c2ccc3c(c2)OCCO3)CC1", "Potency": "inconclusive [activator, single point]"}, {"smiles": "CC1CCc2sc(C(=O)N3CCC(C(N)=O)CC3)cc2C1", "note": "(stereo not given)", "Potency": "active: 0.501 µM"}, {"smiles": "O=c1c2ccccc2nnn1CSc1nnc(-c2ccc3c(c2)OCO3)o1", "Potency": "inconclusive [activator, partial curve]"}, {"smiles": "C=CCOc1ccc(/C(O)=C2/C(=O)C(=O)N(CCCn3ccnc3)C2c2cccs2)cc1", "note": "(stereo not given)", "Potency": "inconclusive [activator, single point]"}, {"smiles": "COc1ccc(OC)c(CNC(=O)c2nn(C)c3c2CS(=O)(=O)c2ccccc2-3)c1", "activation, negative = inhibition": "inactive: -2.28%"}, {"smiles": "CCOC(=O)C1(Cc2cccc(OC)c2)CCN(C2CCOCC2)CC1", "Potency": "inconclusive [activator, single point]"}, {"smiles": "O=C(N=C1SCC(=O)N1c1ccccc1Cl)c1ccco1", "Potency": "inconclusive [activator, single point]"}, {"smiles": "Cc1ccc(O)c(NC(=O)c2ccc3c(c2)C(=O)N(CC(C)C)C3=O)c1", "Potency": "inconclusive [activator, single point]"}, {"smiles": "COC(=O)N/N=C/c1cn(CCCOc2ccc(C)cc2)c2ccccc12", "Potency": "inconclusive [activator, partial curve]"}, {"smiles": "CCc1ccc(C(=O)COc2ccc(NC(C)=O)cc2)cc1", "Potency": "inconclusive [activator, single point]"}, {"smiles": "CCc1nc(-c2ccc(-c3ccc(OC)cc3)nc2OC)no1", "Potency": "inconclusive [activator, partial curve]"}, {"smiles": "Cc1ccc(NC(=O)c2noc3c2CCCCC3)cc1", "Potency": "active: 0.501 µM"}, {"smiles": "NNc1nc(-c2ccccc2Cl)nc2sc3c(c12)CCCC3", "Potency": "inconclusive [activator, full curve]"}, {"smiles": "Cc1ccc(NC(=O)c2ccc(Cl)cc2Cl)cc1O", "Potency": "inconclusive [activator, single point]"}, {"smiles": "O=C(/C=C/c1ccco1)NC(=S)Nc1ccccc1", "Potency": "inconclusive [activator, partial curve]"}, {"smiles": "COc1ccc(-c2nc(CN3CCN(c4ncnc5ccccc45)CC3)c(C)o2)c(OC)c1", "activation, negative = inhibition": "inactive: -34.3%"}, {"smiles": "O=C(NC(=S)NCCC1=CCCCC1)c1ccc(Br)o1", "Potency": "inconclusive [activator, partial curve]"}, {"smiles": "O=C(Nc1nc2ccccc2[nH]1)C1CCCO1", "note": "(stereo not given)", "Potency": "inconclusive [activator, partial curve]"}, {"smiles": "C=CCNc1nnc(Cl)c2ccccc12", "activation, negative = inhibition": "inactive: -4.68%"}, {"smiles": "Cc1cc(NC(=O)COc2ccc(Cl)cc2Cl)n(CCC#N)n1", "Potency": "inconclusive [activator, partial curve]"}, {"smiles": "Cc1ccc(C)c(NC(=O)c2cc(-c3cccnc3)nc3ccccc23)c1", "activation, negative = inhibition": "inactive: 1.08%"}, {"smiles": "CC(=O)N(c1nnc(-c2cccc(C)c2)s1)C1CCCC1", "Potency": "inconclusive [activator, partial curve]"}, {"smiles": "Cc1cc(C)nc(CCNC(=O)c2cc(COc3c(C)cccc3C)on2)n1", "activation, negative = inhibition": "inactive: 17.7%"}, {"smiles": "Cc1ccc(C(=O)Nc2ccc3cn[nH]c3c2)cc1S(=O)(=O)N1CCOCC1", "Potency": "inconclusive [activator, partial curve]"}, {"smiles": "C(=N\\Nc1nc2ccccc2[nH]1)/c1c[nH]c2ccccc12", "Potency": "inconclusive [activator, single point]"}, {"smiles": "Cc1ccc2nc(-c3ccncc3)cc(C(=O)NCc3ccccc3F)c2c1", "activation, negative = inhibition": "inactive: 8.94%"}, {"smiles": "N#CCC(=O)N/N=C\\c1cccc(OC/C=C/c2ccccc2)c1", "Potency": "inconclusive [activator, partial curve]"}, {"smiles": "COc1ccc(C(=O)Nc2ccc3c(c2)nc2n3CCSC2)cc1", "Potency": "inconclusive [activator, partial curve]"}]}]}
